Data published in patent publication US8486697B2, “Inducing cell death by inhibiting adaptive heat shock response” (Incuron, LLC, priority 2008, dated 2013).
Peptide text beside a SMILES is read from it. * marks the point of attachment. Cbz = O=C(OCc1ccccc1)*; CH2F = FC*

What was measured:
hsp70 (inducible form) = experiment: Western immunoblotting of inducible hsp70 in HeLa cells under proteotoxic stress; settings: MG132-treated HeLa, 0.5 μM bafilomycin
HSF1 [1] = experiment: Electrophoretic mobility shift assay (EMSA) of HSF1 DNA binding activity in HeLa extracts; type: cell-based; settings: 5 μM MG132 or 1 μM 17-DMAG, 4 h, cytoplasmic and nuclear extracts
Text: Activation of HSF1-mediated transcription requires release of HSF1 from its complex with hsp90 in the cytoplasm. This is followed by formation of HSF1 homodimers and homotrimers that translocate into the nucleus and bind to specific HSF1 recognition sites within the promoters of heat shock-inducible genes. The effect of QC and 9AA on this process was studied in order to define the point at which these compounds act to inhibit HSF1 function. To assess the intracellular localization and DNA binding capacity of HSF1 complexes, electrophoretic mobility shift assays (EMSA) were performed using protein extracts purified from the cytoplasm or nuclei of cells subjected to proteotoxic stress alone or in combination with QC or 9AA.
HSF1 DNA binding activity was detected using EMSA. Briefly, cytoplasmic and nuclear protein extracts were purified using the Digman protocol from control HeLa cells and HeLa cells treated with MG132 or 17-DMAG alone, or in combination with QC or 9AA. 10 μg of protein extracts were analyzed with a ^32P-labeled double-stranded oligonucleotide (5′ TCG-AGC-TAG-AAG-CTT-CTA-GAA-GCT-TCT-AGC 3′) (SEQ ID NO: 4) specific for HSF1 binding. For the competition assay, a 50× excess of unlabeled oligonucleotides was added to protein extracts together with ^32P-labeled double-stranded oligonucleotides. […]

HeLa cells [2] = experiment: Immunoblotting of apoptosis-specific cleavage of keratin 18 and PARP in HeLa cells; type: cell-based; settings: for caspase-mediated protein cleavage (K18, PARP), drugs used alone (FIG. 12C, D): single drug
Text: Whether induction of apoptosis played a role in the impact of the drug treatments on the number of viable cells was investigated. Apoptosis was monitored by the appearance of caspase-specific cleavage products of keratin 18 and PARP.
Detection reagent (ECL) was from Perkin Elmer (Shelton, Conn.).

HSF1 [3] = type: cell-based; settings: 0.1 μM Bortezomib or 1 μM 17-DMAG alone
B-16 melanoma = experiment: In vivo assay for tumor growth, B-16 melanoma; design: species or system C57BL/6 mice; settings: intra-tumor injection, 1.25 mg QC or 25 μg 17-DMAG
Procedure: (§1) MCA205 and B-16 cells were detached from plastic Petri dishes using 0.5% Trypsin-EDTA, washed and resuspended in sterile PBS. Cells were injected intra-dermally into the shaved abdominal area of C57BL/6 mice (3×10^5 cells in a single injection/mouse). Tumors were measured in two dimensions and tumor volume was calculated according to the formula: […]. On day 8 after implantation, tumors were typically ˜50 mm^3 in size. Tumor-bearing mice were divided into four groups of five animals each and began receiving intra-tumor drug injections on day 9. The control group received PBS injections on days 9, 10, 11, and 12. Mice in group 2 were injected with 1.25 mg QC in PBS on days 9 and 10. Mice in group 3 received 25 μg 17-DMAG in PBS on days 9, 10, 11, and 12. Mice in group 4 were injected with 1.25 mg QC+25 μg 17-DMAG on days 9 and 10, and 25 μg 17-DMAG on days 11 and 12. Only two injections of QC were given, because this drug is stable inside of cells. It may be detected in cells as long as 72 h after treatment and the change of medium. Tumors were measured every 2 days after drugs injections for 24 days. Animals with tumors volume 500 mm3 and larger were euthanized.

HeLa cells [4] = experiment: Cell viability assay (methylene blue) in HeLa cells; type: cell-based; settings: 17-DMAG 1 μM or bortezomib 0.1 μM alone
Procedure: To determine the cytotoxicity of drugs and drug combinations, a cell viability assay was used. […] Cells were collected by trypsinization and a 1:50 dilution was seeded in a 6-well plate. […] Methylene blue was extracted by 0.1M HCl and its absorbance was measured at 560 nm.

MCA205 tumors = experiment: hsp70 induction in MCA205 tumors after intra-tumor injection; type: in vivo, C57BL/6 mice; settings: single intra-tumor injection, 5 h
MCA205 fibrosarcoma = experiment: In vivo assay for tumor growth, MCA205 fibrosarcoma; design: species or system C57BL/6 mice; settings: intra-tumor injection, 1.25 mg QC or 25 μg 17-DMAG
Procedure: as §1

SMILES | HSF1 DNA binding activity, stress inducer alone (FIG. 11A, 11B) (HSF1 [1]) | caspase-mediated protein cleavage (K18, PARP), drugs used alone (FIG. 12C, D) (HeLa cells [2]) | toxicity of stress inducer alone (HeLa cells [4]) | further results
CO/C1=C\C(C)=C\[C@@H](C)[C@@H](O)[C@@H](C)C/C(C)=C/C=C/[C@H](OC)[C@@H]([C@@H](C)[C@@H](O)[C@H](C)[C@@]2(O)C[C@@H](O)[C@H](C)[C@@H](C(C)C)O2)OC1=O [Bafilomycin] |  |  |  | effect of bafilomycin on efficacy of QC as HSR inhibitor (FIG. 11D) (hsp70 (inducible form)): increased the efficacy of QC as an HSR inhibitor
CO[C@H]1/C=C\C=C(/C)C(=O)NC2=CC(=O)C(NCCN(C)C)=C(C[C@@H](C)C[C@H](OC)[C@H](O)[C@@H](C)/C=C(\C)[C@@H]1OC(N)=O)C2=O [17-DMAG] | led to activation of specific HSF1 DNA binding activity | barely detectable | practically non-toxic | HSF1-dependent EGFP synthesis, stress inducer alone (FIG. 10D) (HSF1 [3]): HSF1-dependent EGFP synthesis was induced; antitumor effect as single agent, B-16 (FIG. 13E) (B-16 melanoma): minor antitumor effects; hsp70 synthesis in tumors in vivo, 17-DMAG alone (FIG. 13C) (MCA205 tumors): induced hsp70 synthesis; antitumor effect as single agent, MCA205 (FIG. 13D) (MCA205 fibrosarcoma): minor antitumor effects
CC(C)C[C@@H](C=O)NC(=O)[C@H](CC(C)C)NC(=O)[C@H](CC(C)C)NC(=O)OCc1ccccc1 [MG132] (Cbz-Leu-Leu-Leu-aldehyde) | led to activation of specific HSF1 DNA binding activity |  |  | 
COC(=O)C[C@H](NC(=O)[C@H](C)NC(=O)[C@@H](NC(=O)OCc1ccccc1)C(C)C)C(=O)CF [ZVAD-FMK] (Cbz-Val-Ala-Asp(OMe)-CH2F) |  |  |  | effect of caspase inhibitor on cleavage induced by the combinations (FIG. 12E) (HeLa cells [2]; overnight, 20 μM ZVAD-FMK with 20 μM QC and 17-DMAG or bortezomib): blocked this effect completely
CC(C)C[C@H](NC(=O)[C@H](Cc1ccccc1)NC(=O)c1cnccn1)B(O)O [bortezomib] |  | barely detectable | practically non-toxic | 
